Hit rate of the full screen: of about 46,000 compounds, about 60 (0.1%) were called active. Not shown: some 3% with an inconclusive outcome. Calls come from the whole dose curve; as a rule, active = well fitted inhibition curve with a large enough effect; inconclusive = small, poorly fitted or top-dose-only effect; inactive = no such curve, though single readings can be large or run the other way. The list shows a part of the results.

A short description of the experiment: Primary qHTS assay for Inhibitors of ovarian cancer metastasis using an organotypic tumor microenvironment (TME) model.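 For activity change, negative = inhibition: plate controls were DMSO wells for no effect and tomatine positive control wells for full effect.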 Note: nearly all actives have a fitted effect of over 65% in size. The following applies: SKOV3ip1-GFP adhesion/invasion on 3D omental model, fluorescence; series mostly up to 45.8 µM; activity change, negative = inhibition: at the top concentration. Summed up:
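A 3D layer of primary human omental fibroblasts, mesothelial cells, fibronectin and collagen I, grown 48 hr, received SKOV3ip1-GFP cells in serum-free medium plus compounds at 0.36-46 umol/L. After 2 hr RT and 16 hr 37 C, fixed adherent GFP cells were counted; normalized to DMSO and tomatine.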
For the molecule `CCOc1ccc(N(CC(=O)Nc2ccc(F)cc2F)S(=O)(=O)c2c(C)[nH]c(=O)[nH]c2=O)cc1`, the “activity change, negative = inhibition” value was inactive: -18.1%.

Turning to `CCOC(=O)c1ccc(OCC2c3cc(OC)c(OC)cc3CCN2C(=O)Cc2ccc(F)cc2)cc1` (configuration not stated), the outcome was inactive.

As to `CC(=O)N1CCCc2cc(S(=O)(=O)N(C)CC(=O)Nc3ccc(F)cc3Cl)ccc21`, the “activity change, negative = inhibition” value is inactive: -2.61%.

As for `O=C(NCC(c1ccc2c(c1)OCO2)N1CCN(c2ccccc2)CC1)c1ccccc1F` (configuration not stated), the “activity change, negative = inhibition” value was inactive: -4.8%.

As to `Cc1ccc(NC(=O)c2c(Nc3ccccc3C)sc(C(=O)c3ccccc3)c2N)cc1`, the “activity change, negative = inhibition” value was inactive: 3.87%.

As to `Cc1ccc2c(c1)sc1nc(=O)n(-c3ccc(Cl)cc3)c(=O)n12`, the “activity change, negative = inhibition” value was inactive: -0.252%.

Take `CN1CCN(CCCNC(=O)Cn2c(-c3cccs3)cc3ccccc32)CC1`: the “activity change, negative = inhibition” value was inactive: 14.2%.

As for `COc1ccc(OC)c(C2CC(=O)c3c([nH]c(C(=O)OC4CCC(C)CC4)c3C)C2)c1` (configuration not stated), the “activity change, negative = inhibition” value is inactive: -15.1%.

For `Cc1ccc(-c2cc(N)n3nc(-c4ccc(C)cc4)cc3n2)cc1`, the “activity change, negative = inhibition” value is inactive: 4.47%.

Take `CCOC(=O)c1noc2ncnc(Nc3ccc(C)c(F)c3)c12`: the outcome was inactive.

Regarding `CCOC(=O)c1noc2ncnc(N(CCC(=O)OC)c3ccccc3)c12`, the “activity change, negative = inhibition” value is inactive: 9.02%.

As for `Cc1c(-c2nsc(NC(=O)c3ccc(Cl)cc3)n2)nnn1-c1ccc(C(C)C)cc1`, the “activity change, negative = inhibition” value is inactive: -2.26%.

On to `COc1ccc(NC(=O)c2cnn(-c3ccc(C)cc3)c2-n2cccc2)cc1Cl`, for which the “activity change, negative = inhibition” value was inactive: -7.02%.

In the case of `COc1ccc(S(=O)(=O)c2cn(C)c3cc(N4CCCCC4)c(F)cc3c2=O)cc1`, the molecule was called inactive.

In the case of `CC(=O)c1ccc(N2CCN(c3nc4c(S(=O)(=O)c5ccccc5)nnn4c4ccc(Cl)cc34)CC2)cc1`, the “activity change, negative = inhibition” value was inactive: -7.59%.

Regarding `COc1ccc(-c2cc(C)no2)cc1S(=O)(=O)NCc1ccc(OC(C)C)cc1`, the “activity change, negative = inhibition” value is inactive: -7.9%.

Regarding `COc1cc(NC(=O)c2cc(-c3ccc4c(c3)OCO4)on2)cc(OC)c1OC`, the “activity change, negative = inhibition” value was inactive: -12.1%.

As for `CC(CC(=O)NCc1ccc(Cl)cc1)CC1=NS(=O)(=O)c2ccccc2N1` (configuration not stated), the “activity change, negative = inhibition” value is inactive: -5.13%.

In the case of `Cc1cccc(Nc2nnc(-n3nc(C)cc3C)c3ccccc23)c1`, the “activity change, negative = inhibition” value is inactive: 20.5%.

As to `CCc1cccc2c(-c3ccccc3)nc(SCC(=O)Nc3ccccc3)nc12`, the “activity change, negative = inhibition” value was inactive: -9.93%.

For the molecule `COc1ccc2c(CNCc3ccc(Cl)cc3)c(C(=O)O)n(Cc3ccccc3C)c2c1`, the result was inactive.

Regarding `COc1ccc(N2CCN(CCCNC(=O)C3COc4ccc(OC)cc4C3)CC2)cc1` (configuration not stated), the “activity change, negative = inhibition” value was inactive: 8.48%.

Take `Cc1cc(Br)ccc1NC(=O)c1cc2c(=O)n(C)c3cc(Cl)ccc3c2s1`: the “activity change, negative = inhibition” value is inactive: -2.39%.

Consider `O=C(NC1CC(=O)N(c2ccccc2)C1)C1CCCCC1` (configuration not stated), for which the outcome was inactive.

Take `Cc1cc(C)cc(NC(=O)CSc2nccn2-c2ccccc2)c1`: the outcome was inactive.

For the molecule `Cc1cccc(NC(=O)C2CCN(S(=O)(=O)c3cccc4nsnc34)CC2)c1C`, the call was inactive.

Consider `COc1ccc(NC(=O)C2=C(C)Nc3nc(SCc4ccccc4C)nn3C2c2ccc(Br)cc2)cc1` (configuration not stated), for which the “activity change, negative = inhibition” value was inactive: -0.276%.

With `CSc1ccc(CCNc2ncnc3onc(C)c23)cc1`, the “activity change, negative = inhibition” value is inactive: 4.24%.

Turning to `Cc1cc(C)c2oc(C(=O)N(Cc3ccc(F)cc3)C3CCS(=O)(=O)C3)cc(=O)c2c1` (configuration not stated), the “activity change, negative = inhibition” value was inactive: 10.3%.

Turning to `CN(C(=O)c1cc(-c2ccccc2O)on1)c1ccccc1`, the “activity change, negative = inhibition” value was inactive: 16.8%.

With `COc1ccc(S(=O)(=O)N2CCC(c3ccncc3)CC2)cc1Cl`, the “activity change, negative = inhibition” value was inactive: -15.5%.

For `COc1ccccc1NC(=O)c1c(NCc2sccc2C)sc2c1CCCCC2`, the “activity change, negative = inhibition” value was inactive: -0.492%.

Take `CN(C(=O)Cn1c(=O)n(CCCS(=O)(=O)C2CCCCC2)c(=O)c2ccccc21)c1ccccc1`: the “activity change, negative = inhibition” value was inactive: -3.69%.

With `COc1ccc(C(CNC(=O)COc2ccc(C)cc2)N2CCCCC2)cc1` (configuration not stated), the “activity change, negative = inhibition” value was inactive: -12.1%.

In the case of `CCN1CCN(C(c2ccc(OC)cc2)c2c(O)cc(C)n(CCOC)c2=O)CC1` (configuration not stated), the result was inactive.

Regarding `CCOc1ccc(/C=C(\C#N)c2nc(-c3cc4ccccc4oc3=O)cs2)c(OCC)c1`, the “activity change, negative = inhibition” value is inactive: -7.61%.

Regarding `CCOC(=O)c1c(C)oc2ccc(N(C(=O)Oc3ccccc3)S(=O)(=O)c3ccccc3)cc12`, the “activity change, negative = inhibition” value was inactive: 0.418%.

Take `Cc1cc(C)cc(N(CC(=O)Nc2cccc(C)c2C)S(=O)(=O)c2c(C)[nH]c(=O)[nH]c2=O)c1`: the “activity change, negative = inhibition” value is inactive: -6.47%.

`Cc1cccc(CCNC(=O)c2cc3ccccn3n2)c1`: the call was inactive.

As for `COc1ccc(Cl)cc1NC(=O)Cn1c2ncccc2c(=O)n1-c1ccc(C)c(C)c1`, the “activity change, negative = inhibition” value is inactive: -24.9%.

As for `COc1ccc(C2C=C(c3ccccc3)Nc3nc(NC(=O)c4ccc(C)cc4)nn32)cc1` (configuration not stated), the “activity change, negative = inhibition” value is inactive: 0.205%.

In the case of `CCOc1cc(-c2nc(-c3ccc(-c4ccc(C)cc4)nc3OC)no2)cc(OCC)c1OCC`, the “activity change, negative = inhibition” value is inactive: 6.49%.

`O=C(Cn1c(=O)oc2ccccc21)NCc1cccc(Cl)c1`: the “activity change, negative = inhibition” value was inactive: 2.49%.

Turning to `COc1ccc2c(CNCc3ccc(C)o3)c(C(=O)O)n(Cc3ccccc3)c2c1`, the “activity change, negative = inhibition” value was inactive: -2.6%.

For the molecule `Cc1ccc(NC(=O)Nc2nnc(N(C)Cc3ccccc3)s2)cc1`, the “activity change, negative = inhibition” value was inactive: -4.49%.

Consider `Cc1cc(NS(=O)(=O)c2ccc(NC(=O)COc3ccc(Cl)cc3)cc2)nc(C)n1`, for which the “activity change, negative = inhibition” value was inactive: 3.31%.

For the molecule `CCOC(=O)c1ccc(NC(=O)c2cc3cc(C)ccc3n2C)cc1`, the “activity change, negative = inhibition” value was inactive: 1.97%.

The values above are taken from PubChem BioAssay AID1963576 (National Center for Advancing Translational Sciences (NCATS), 2024).
